# A number of entries come with more than one value. This list holds those alone. An entry can have further records. Values given together are repeats across runs, samples, wells, individuals or studies. Additions like (4×) count equal records among those shown.
# Test system: A498 complex spheroids with HUVEC/MSC, growth
# Test: Anticancer human tumor A498 cell line growth inhibition [AhR];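 further: luminescence signal used as a surrogate for viable cells; seven day exposure starting three days after spheroid seeding; luminescence viability scaled so 100% equals DMSO vehicle wells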
# Settings: compound alone 3.16 µM; stronger effect = lower value
# Description: Multicellular complex tumor spheroid response to aryl hydrocarbon receptor antagonists in combination with a variety of drugs and investigational agents in selected tumor cell lines
# The current study was undertaken to assess response to aryl hydrocarbon receptor antagonists in combination with standard-of-care drugs and investigational agents in solid tumor complex spheroid models. Complex spheroids include a stromal component modeled by human endothelial cells (HUVEC) and fibroblasts modeled by human mesenchymal stem cells (MSCs). The concentration ranges selected for each drug and investigational agent were based upon clinically achievable concentrations if the clinical Cmax of the agent was known.
# Compounds. […] If the clinical Cmax for an agent had not been determined, the highest concentration tested was 10 microM (Table 1). […]
structure (smiles),measurement,value
Cc1cncc(-c2nc(NCCc3c[nH]c4ccccc34)c3ncn(C(C)C)c3n2)c1,"viability, T/C","46.3, 71.6, 60, 67.3 (2×), 55, 57.3, 74.3, 48.3, 51.3, 62.3, 54.3, 58.7, 58.1, 57.4, 65, 34.3, 39.5, 32, 31.2, 82%"

# Source: PubChem BioAssay AID1919007 (Molecular Pharmacology Branch, DTP, NCI, 2023)
